Hit rate of the full screen: of about 48,000 compounds, about 450 (0.94%) were called active. About 19% were inconclusive and are not listed. Calls follow the shape of the dose curve; as a rule, active = well fitted inhibition curve with a large enough effect; inconclusive = small, poorly fitted or top-dose-only effect; inactive = no such curve, though single readings can be large or run the other way. The list shows a part of the results.

The experiment is described as follows: Primary qHTS for Identification of Small Molecule Inhibitors of Huntingtin Promoter Activity. Also: nearly all actives have a fitted effect of over 50% in size. The settings on record: HEK293 HTT promoter firefly luciferase reporter (activity 0% = vehicle and -100% = no light), 24 h; series mostly up to 57.5 µM; activity change, negative = inhibition: at the top concentration. In a few lines: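 Luminescence was read after Dual-Glo reagent and a 10 min room-temperature incubation. Values were normalized to vehicle (0% activity) and zero RLU (-100% activity). Reporter HEK293 cells had been exposed to compounds (up to 57.5 uM final) for 24 h.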
In general terms: In qHTS, concentration-response curves come from the screen itself.
`CC1CCN(C(=O)CN2c3ccc(C(C)C)cc3-c3ccccc3S2(=O)=O)CC1`: the “activity change, negative = inhibition” value is inactive: 12.8%.

Regarding `Cc1ccc(-c2c(C(=O)NCc3ccc(F)cc3)oc(=O)c3ccccc23)cc1`, the “activity change, negative = inhibition” value was inactive: -11.4%.

For `CC(=O)c1cccc(NC(=O)c2oc(=O)c3ccccc3c2-c2ccccc2)c1`, the “activity change, negative = inhibition” value was inactive: -21.1%.

For the compound `CC(C)CN(CCNC(=O)c1cn(C)c2ccc(S(=O)(=O)N3CCOCC3)cc2c1=O)CC(C)C`, the activity change, negative = inhibition was inactive: -21.3% [at 11.5 µM].

`CSCCC(NS(=O)(=O)c1ccc2c(c1)oc(=O)n2C)C(=O)NCc1ccccc1` (stereo not given): the “activity change, negative = inhibition” value was inactive: -10.6%.

Regarding `Cc1ccc2cccc(NC(=O)c3ccc(-c4cccc(Cl)c4Cl)o3)c2n1`, the “activity change, negative = inhibition” value is inactive: -4.02%.

`COc1ccc(CCCc2nnc(SCC(=O)Nc3ccc(F)cc3)o2)cc1C`: the “activity change, negative = inhibition” value was inactive: -5.84%.

With `CSc1ccc(C(=O)Nc2ccc(-c3nc4ccccc4s3)c(O)c2)cc1`, the “activity change, negative = inhibition” value was inactive: -2.77%.

On to `COc1ccc2c(c1)c1c(c(=O)n(Cc3ccccc3)c(=O)n1CC(=O)NCc1ccc(C)cc1)n2C`, for which the “activity change, negative = inhibition” value was inactive: -9.62%.

As to `Cc1ccc(C)c(N2CCN(C(=O)c3ccc(Nc4nc5ccccc5n5nnnc45)cc3)CC2)c1`, the “activity change, negative = inhibition” value is inactive: 15.7%.

For the compound `COc1ccc(N2CCN(C(=O)CCC(=O)NNc3nc4ccccc4c4nc(C)nn34)CC2)cc1`, the “activity change, negative = inhibition” value was inactive: -25.7%.

As for `Cc1ccc(OCc2nnc(SCC(=O)Nc3ccccc3C(C)C)o2)cc1`, the “activity change, negative = inhibition” value was inactive: -27.9%.

For the compound `CCc1ccc(NC(=O)c2ccc3nc(C(C)C)oc3c2)cc1`, the “activity change, negative = inhibition” value was inactive: -21.3%.

As to `COc1cc(OC)c(NC(=O)Cn2c(=O)cc(C)c3c(C)nn(-c4ccc(C)cc4)c32)cc1Cl`, the “activity change, negative = inhibition” value is inactive: 0%.

As to `CSc1ccc(-c2nc3c(C)cccn3c2Nc2ccc3c(c2)OCCO3)cc1`, the “activity change, negative = inhibition” value is inactive: -3.23%.

`CCOC(=O)N1CCC2(CC1)OC(=O)C(C)=C2C(=O)NCc1ccc(C)cc1`: the “activity change, negative = inhibition” value is inactive: -2.58%.

Consider `CCNC(=O)c1ccc(CSc2nc3cccnc3n2Cc2ccc(OC)cc2)cc1`, for which the “activity change, negative = inhibition” value was inactive: -24.1%.

Turning to `COC(=O)Cn1ccc2cc(S(=O)(=O)N3CCCCCC3)ccc21`, the “activity change, negative = inhibition” value is inactive: -23.1%.

As to `CCN(C(=O)CN1C(=O)COc2ccc(S(=O)(=O)N3CCOCC3)cc21)c1cccc(C)c1`, the “activity change, negative = inhibition” value was inactive: 2.53%.

`COC(=O)c1ccc(NC(=O)Cn2c(-c3nonc3N)nc3ccccc32)cc1`: the “activity change, negative = inhibition” value was inactive: -0.366%.

Regarding `CCCc1cnc2c(c1SCC(=O)Nc1c(C)cc(C)cc1C)c(=O)n(C)c(=O)n2C`, the “activity change, negative = inhibition” value is inactive: -11.4%.

For the compound `Cc1nn(CC(=O)N2CCC(C)CC2)c(=O)c2cc3occc3n12`, the “activity change, negative = inhibition” value is inactive: -6.2%.

In the case of `FC(F)(F)c1ccc(C2=Nc3ccccc3NC(c3cccs3)=N2)cc1`, the “activity change, negative = inhibition” value is inactive: -35.7%.

As to `COc1ccc(F)cc1NC(=O)C1CCN(c2nc(-c3ccc(OC)c(OC)c3)no2)CC1`, the “activity change, negative = inhibition” value was inactive: 37.9%.

For the compound `Cc1ccc(-n2nc(C)c3c(C)cc(=O)n(CC(=O)NCc4ccc(OC(C)C)cc4)c32)cc1`, the “activity change, negative = inhibition” value was inactive: -16.3%.

As for `O=C(COc1ccc(F)cc1)Nc1cccc(OCc2cc(=O)n3ccccc3n2)c1`, the “activity change, negative = inhibition” value was inactive: 57.5%.

`COc1ccc(Nc2ncc(C(=O)Nc3cc(C)ccc3OC)c3ccccc23)cc1`: the “activity change, negative = inhibition” value is inactive: -18.3%.

As to `Cc1ccc2c(c1)c1c(c(=O)n(-c3ccccc3C)c(=O)n1Cc1ccccc1F)n2C`, the “activity change, negative = inhibition” value was inactive: -17.5%.

With `COc1ccc(NC(=O)CCc2c(C)nc3c(-c4ccccc4)c(C)nn3c2C)cc1Cl`, the “activity change, negative = inhibition” value is inactive: -24.7%.

As to `Cn1c(C(=O)NCc2ccc(Cl)cc2)cc2c(=O)n(C)c3ccccc3c21`, the “activity change, negative = inhibition” value is inactive: 11%.

Consider `Cc1ccc(NC(=O)c2ccc(=O)n(CC(=O)Nc3cc(C)cc(C)c3)n2)cc1`, for which the “activity change, negative = inhibition” value was inactive: -13.2%.

For `Fc1ccc(-n2ncc3c(Nc4ccc(Oc5ccccc5)cc4)ncnc32)cc1`, the “activity change, negative = inhibition” value was inactive: 0.739%.

Take `CC(=O)Nc1cccc(-c2nnc(SCC(=O)c3cc([N+](=O)[O-])ccc3Br)o2)c1`: the “activity change, negative = inhibition” value is inactive: 0.0183%.

As for `COc1cc(C(c2c(C)[nH][nH]c2=O)c2c(C)[nH][nH]c2=O)ccc1OC(=O)c1ccccc1F`, the activity change, negative = inhibition is inactive: -15% [at 11.5 µM].

Turning to `CC(=O)Nc1ccc(NC(=O)CSc2nnc3c4cc(Br)ccc4n(C)c3n2)cc1`, the “activity change, negative = inhibition” value is inactive: -14.8%.

As for `COC(=O)c1ccc2oc(=O)c(S(=O)(=O)c3ccc(C)cc3)cc2c1`, the “activity change, negative = inhibition” value was inactive: -13.9%.

As to `CCCC(=O)Nc1cccc(-c2nc3cc(C)c(C)cc3o2)c1C`, the “activity change, negative = inhibition” value was inactive: -6.12%.

`Cc1ccc(CNC(=O)C2CCN(c3nc4ccc(C)cc4[nH]3)CC2)cc1`: the “activity change, negative = inhibition” value was inactive: 0.879%.

`Cc1ccc2c(c1)c1c(c(=O)n(-c3cccc(Cl)c3)c(=O)n1C)n2C`: the “activity change, negative = inhibition” value is inactive: -10.2%.

With `COc1cc(OC)c(NC(=O)c2cnc(N3CCCC3)nc2C)cc1Cl`, the “activity change, negative = inhibition” value is inactive: -12%.

For `CCSc1ncc(Cl)c(C(=O)Nc2sc(C(C)=O)c(C)c2C(=O)OC)n1`, the “activity change, negative = inhibition” value was inactive: -8.18%.

Consider `O=C(CCc1ccc(O)cc1)c1c(O)cc(O)cc1O[C@@H]1O[C@H](CO)[C@H](O)[C@H](O)[C@H]1O`, for which the “activity change, negative = inhibition” value was inactive: -6.92%.

Consider `CCOC(=O)c1c(NC(=O)c2cc3nc(-c4ccc(OC)cc4)cc(C(F)(F)F)n3n2)sc(C)c1C`, for which the “activity change, negative = inhibition” value is inactive: -0.413%.

Turning to `CCc1cccc(NC(=O)c2c(C)oc3ncnc(N4CCCCC4)c23)c1`, the “activity change, negative = inhibition” value is inactive: -28.7%.

`COc1ccc(C(=O)c2oc3ccccc3c2NC(=O)c2nc(SC)ncc2Cl)cc1Cl`: the “activity change, negative = inhibition” value was inactive: 5.67%.

For the compound `NCCC(O)(P(=O)(O)O)P(=O)(O)O`, the “activity change, negative = inhibition” value was inactive: 13.7%.

Consider `CCOC(=O)N1CCc2c(sc(NCc3cccs3)c2C(=O)Nc2cc(OC)ccc2OC)C1`, for which the “activity change, negative = inhibition” value is inactive: -9.39%.

Take `CC(C)c1ccc(Nc2cc(C(=O)NCc3cccs3)c3ccccc3n2)cc1`: the “activity change, negative = inhibition” value was inactive: -4.12%.

In the case of `CCOC(=O)c1nnn(C(CC)C(=O)Nc2c(C)cccc2C)c1C(=O)OCC` (stereo not given), the “activity change, negative = inhibition” value was inactive: -6.84%.

On to `CCN(CC)C(=O)CSc1nnc2[nH]c(=O)cc(C)n12`, for which the “activity change, negative = inhibition” value was inactive: -7.05%.

`Cc1ccc(NC(=O)N2CCN(c3nnc(C)c4c(C)n(-c5ccccc5)nc34)CC2)c(Cl)c1`: the “activity change, negative = inhibition” value is inactive: -7.22%.

With `CCNc1nc(Oc2ccc(OCC(=O)OC)nn2)nc(N2CCOCC2)n1`, the “activity change, negative = inhibition” value was inactive: 0.311%.

As for `CCc1ccccc1NC(=O)CCCN1C(=O)COc2ccc(C)cc21`, the “activity change, negative = inhibition” value was inactive: -19.4%.

Consider `CCOc1ccc(-c2cccc(NS(=O)(=O)c3ccc(Cl)s3)c2)nn1`, for which the “activity change, negative = inhibition” value is inactive: -8.47%.

`CCOc1ccc2nc(N3CCCC(C(=O)NCc4ccc(OC)cc4)C3)sc2c1` (stereo not given): the “activity change, negative = inhibition” value was inactive: 15.4%.

As to `COc1ccc2cc(-c3cn4c(n3)sc3cc(F)ccc34)c(=O)oc2c1`, the “activity change, negative = inhibition” value was inactive: -0.11%.

Turning to `COc1ccc(/C=C/c2onc(C)c2S(=O)(=O)N2CCC(C(=O)N3CCC(C)CC3)CC2)cc1`, the “activity change, negative = inhibition” value was inactive: -28.1%.

Turning to `Cc1ccccc1CSc1nc(-c2ccccc2)nc2c1Cc1c(CO)cnc(C)c1O2`, the “activity change, negative = inhibition” value was inactive: -15%.

Turning to `COc1cccc(C(=O)NCC(c2ccc(N(C)C)cc2)N2CCOCC2)c1OC` (stereo not given), the “activity change, negative = inhibition” value was inactive: 12.6%.

Consider `CC(C)CCNC(=O)N1CCN(S(=O)(=O)c2ccc3c(ccn3C)c2)CC1`, for which the “activity change, negative = inhibition” value is inactive: -32.4%.

For the origin of these results see PubChem BioAssay AID1508623 (National Center for Advancing Translational Sciences (NCATS), 2021).
